# In the supplement of paper PMC7826260:
# This is one part of the list. Cleavage of a single-stranded DNA pool by Rep nickase domains was read by sequencing at 3 µM enzyme and 37 °C for 1 h; the strands have 90 letters, of which the middle is given. The score is log2 (uncut reads / reads without enzyme); uncut sequences lie near 0, cut ones below; no hit call is given. Because reads are shares of a total, they shift together, so uncut sequences can rise above 0 when many others are cut.
# Experiments:
# Test in all cases: uncleaved DNA left, log2 of reads against the no-enzyme library (log2 ratio); higher = less cleavage (more negative = more Rep cleavage of the k-mer); sequences stand for … in CTCGTCCG…ACCGGAGA
# [1] = tested on: T1, Rep nickase domain of Muscovy duck circovirus
# T1 sequence (protein, residues 1-111, tag omitted): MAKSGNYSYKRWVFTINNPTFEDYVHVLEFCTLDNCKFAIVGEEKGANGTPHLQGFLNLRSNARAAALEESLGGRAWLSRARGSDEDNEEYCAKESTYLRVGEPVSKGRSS
# Description: (§1)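 A pool of 90-nt single-stranded DNAs with seven random bases just before the constant AC of the nick site (name = the seven bases) was cut by 3 µM recombinant His6-SUMO-tagged Rep nickase domain (300 nM DNA, 50 mM HEPES pH 8.0, 50 mM NaCl, 1 mM MnCl2, 1 h, 37 °C, three replicates). Uncut DNA was amplified and sequenced.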
# [2] = tested on: T2, Rep nickase domain of banana bunchy top virus
# T2 sequence (protein, residues 1-94, tag omitted): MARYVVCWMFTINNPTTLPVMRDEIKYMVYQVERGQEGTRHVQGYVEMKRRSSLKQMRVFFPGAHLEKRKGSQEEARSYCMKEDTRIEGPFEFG
# Description: as §1
# [3] = tested on: T3, Rep nickase domain of cabbage leaf curl virus
# T3 sequence (protein, residues 1-116, tag omitted): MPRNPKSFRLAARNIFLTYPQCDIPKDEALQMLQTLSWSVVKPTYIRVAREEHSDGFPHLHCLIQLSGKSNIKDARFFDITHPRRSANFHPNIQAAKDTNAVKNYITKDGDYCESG
# Description: as §1
# [4] = tested on: T4, Rep nickase domain of chickpea chlorotic dwarf virus
# T4 sequence (protein, residues 1-124, tag omitted): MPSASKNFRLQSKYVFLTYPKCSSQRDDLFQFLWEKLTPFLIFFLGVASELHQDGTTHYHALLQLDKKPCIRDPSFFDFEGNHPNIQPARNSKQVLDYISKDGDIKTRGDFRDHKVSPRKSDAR
# Description: as §1
# [5] = tested on: T5, Rep nickase domain of faba bean necrotic yellows virus
# T5 sequence (protein, residues 1-98, tag omitted): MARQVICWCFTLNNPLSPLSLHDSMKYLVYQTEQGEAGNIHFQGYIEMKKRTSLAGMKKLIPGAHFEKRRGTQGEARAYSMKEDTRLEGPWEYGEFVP
# Description: as §1
# [6] = tested on: T6, Rep nickase domain of maize striate mosaic virus
# T6 sequence (protein, residues 1-117, tag omitted): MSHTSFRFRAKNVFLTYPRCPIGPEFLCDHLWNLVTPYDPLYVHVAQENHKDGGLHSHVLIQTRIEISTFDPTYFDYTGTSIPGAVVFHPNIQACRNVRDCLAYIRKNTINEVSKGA
# Description: as §1
# [7] = tested on: T7, Rep nickase domain of porcine circovirus 2
# T7 sequence (protein, residues 2-116, tag omitted): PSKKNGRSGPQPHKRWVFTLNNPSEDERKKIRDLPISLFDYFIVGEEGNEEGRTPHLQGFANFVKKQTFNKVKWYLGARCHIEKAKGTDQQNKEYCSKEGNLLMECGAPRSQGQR
# Description: as §1
# [8] = tested on: T8, Rep nickase domain of tomato golden mosaic virus
# T8 sequence (protein, residues 1-124, tag omitted): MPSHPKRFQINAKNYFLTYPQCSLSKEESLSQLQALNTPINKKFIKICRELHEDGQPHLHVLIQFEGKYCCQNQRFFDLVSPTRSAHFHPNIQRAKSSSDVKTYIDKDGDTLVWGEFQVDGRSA
# Description: as §1
# [9] = tested on: T9, Rep nickase domain of tomato yellow leaf curl virus
# T9 sequence (protein, residues 1-136, tag omitted): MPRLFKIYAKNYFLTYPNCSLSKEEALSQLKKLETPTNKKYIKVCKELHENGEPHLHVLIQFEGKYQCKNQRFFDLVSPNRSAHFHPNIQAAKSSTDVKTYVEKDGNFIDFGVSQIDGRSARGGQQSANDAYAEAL
# Description: as §1
# [10] = tested on: T10, Rep nickase domain of wheat dwarf virus
# T10 sequence (protein, residues 1-137, tag omitted): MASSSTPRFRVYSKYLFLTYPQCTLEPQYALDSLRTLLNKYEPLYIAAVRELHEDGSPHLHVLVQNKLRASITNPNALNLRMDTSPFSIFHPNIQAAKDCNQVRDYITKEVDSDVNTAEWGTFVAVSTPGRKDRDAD
# Description: as §1
Sequence,uncleaved DNA left (log2) [1],uncleaved DNA left (log2) [2],uncleaved DNA left (log2) [3],uncleaved DNA left (log2) [4],uncleaved DNA left (log2) [5],uncleaved DNA left (log2) [6],uncleaved DNA left (log2) [7],uncleaved DNA left (log2) [8],uncleaved DNA left (log2) [9],uncleaved DNA left (log2) [10]
GGCATGC,-0.0889,-0.0594,0.22,0.859,-0.112,0.908,-0.0307,-0.191,-0.111,-0.0561
GTCGGCA,0.122,0.102,0.382,0.972,-0.0497,1.36,0.0921,0.0596,0.00361,0.134
TCAATGA,0.0365,-0.0578,0.0669,-0.0528,0.0515,-0.624,0.045,0.0812,-0.00172,-0.0412
AAAGGAT,-0.0486,-0.0384,0.17,1.68,-0.0288,1.78,0.191,0.0681,-0.204,0.00505
CAGGAAC,-0.0334,-0.045,0.0414,0.703,-0.101,0.431,0.245,-0.031,-0.0493,0.156
CTCGCGA,0.0454,-0.0627,-0.591,-0.496,-0.163,-0.721,0.102,-0.205,0.00928,-0.249
CCACTGT,0.0141,-0.0694,-0.0991,-0.0314,-0.167,0.185,-0.147,-0.198,-0.12,-0.109
AGTTGTT,-3.29,-2.85,-2.46,-2.39,-1.29,-0.924,-3.59,-0.677,-0.032,-1.71
CATTTCT,-4.13,-3.97,-0.887,-3.06,-0.293,-1.37,-4.21,-0.369,-0.0776,-0.328
AGCCTTC,0.118,-0.0489,0.335,0.612,0.0618,0.118,0.0108,0.0109,0.00127,0.108
TAAACTC,-0.023,-0.0497,-3.58,-3.15,-0.0108,-1.94,-0.0428,-2.24,-0.14,-3.36
TGCGGGT,0.0669,0.0608,-0.0706,-0.194,0.0459,0.00346,0.105,-0.0132,0.0129,-0.0451
TATAGAT,0.0425,0.0167,0.107,-0.683,0.035,1.04,-0.178,0.00535,-0.0196,0.0739
ATTCCCG,-1.65,-0.049,-0.953,-0.158,-0.109,-1.11,-2.8,-0.0471,0.0303,-0.135
CAAAAAG,0.0446,0.0248,-0.794,-0.643,0.18,-1.05,0.203,0.129,0.183,-0.107
TCTACAG,-0.0641,-0.00464,-0.747,-2.04,0.0381,-1.03,0.0364,-0.0294,-0.00973,-0.0701
GGTGTTT,-0.00356,-0.0332,0.469,0.867,-0.0706,1.71,0.0601,-0.0531,0.119,0.118
TATATGA,0.0129,0.00929,0.0655,-0.109,0.0596,-0.651,0.033,0.0127,-0.0183,0.0477
GAGTCCT,-0.353,-1.49,0.18,-1.11,-1.02,1.08,-3.25,-0.172,0.0571,-0.0371
AAACGAT,-0.0193,-0.114,0.0838,0.64,-0.177,1.39,0.0533,0.0619,-0.305,-0.0459
GGGATAA,0.101,0.12,0.945,2.16,0.0135,2.27,0.206,0.0479,0.0533,0.244
ATGCAAT,0.177,0.0193,0.109,0.0528,0.133,-0.224,0.0626,0.11,0.0228,0.137
ACATCTC,0.0514,-0.0867,-0.432,-0.478,0.00127,-0.352,0.109,0.0276,-0.0674,0.0474
GAATGTC,0.0235,0.121,-0.6,0.553,0.0786,0.828,-0.0199,0.0566,0.0952,-0.0556
GCGTTGT,-0.0617,-0.112,-0.149,0.14,-0.164,-0.154,-0.72,-0.118,-0.0112,-0.106
CGAACCC,-0.128,-0.146,-0.00381,-0.365,-0.0959,-0.231,-0.551,-0.262,-0.0909,0.0598
TCCGCTC,-0.0412,0.00566,0.115,-0.279,0.121,-0.352,-0.0445,-0.163,-0.183,-0.193
ACGATCC,0.0312,0.158,0.108,0.242,0.109,-0.0276,0.195,0.107,-0.0332,-0.0291
CTCTTAT,-0.33,-0.122,0.125,-1.09,-0.133,-0.627,-1.35,-0.0471,0.0314,-0.178
CCAGCCG,0.02,-0.0103,-0.742,-0.26,0.157,-0.733,0.132,0.0052,-0.146,-0.0527
